Reference: PubChem BioAssay AID493208 (National Center for Advancing Translational Sciences (NCATS), 2011)
Hit rate of the full screen: of about 44,000 compounds, about 340 (0.77%) were called active. About 5% were inconclusive and are not listed. Calls come from the whole dose curve; as a rule, active = well fitted inhibition curve with a large enough effect; inconclusive = small, poorly fitted or top-dose-only effect; inactive = flat fitted curve, though single readings scatter. This is one part of the list.

Assay: Acumen qHTS Assay for Inhibitors of the mTORC1 Signaling Pathway in MEF (Tsc2-/-, p53-/-) Cells: Sytravon; note: nearly all actives have a fitted effect of over 50% in size
Conditions: phospho-rpS6 immunofluorescence/PI, 24 h; series mostly up to 38.3 µM; activity change, negative = inhibition: at the top concentration
Procedure, shortened: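 Read-out: phospho-S6 Alexa-488 intensity over PI intensity per well, scored as % active cells using thresholds from rapamycin (7.5 nM) and DMSO controls. Tsc2-/-, p53-/- MEFs exposed to compound for 24 h; PI cell count recorded as viability.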

Activity change, negative = inhibition, inactive:
COc1cc(C2CC(=O)Nc3c2c(C)nn3-c2nncc(-c3ccc(C)cc3)n2)cc(OC)c1OC (centres undefined) 0.42%, COc1ccc(S(=O)(=O)c2c(O)c3ccc(C(=O)NCc4ccc(F)cc4)cc3[nH]c2=O)cc1 3.91%, COc1ccc(NC(=O)CSc2nc(-c3ccc(F)cc3)[nH]c2-c2ccc(C)cc2)cc1OC -4.79%, CC(=O)c1ccc(NC(=O)c2cnn(-c3cccc(F)c3)c2-n2cccc2)cc1 -6.52%, Cc1ccc(CNC(=O)c2cc(C)nc3c2c(C)nn3-c2ccc(C)cc2)cc1 0.631%, CCOc1ccc(CCNC(=O)c2ccc3c(c2)c(C)c(C)n3Cc2ccccc2)cc1OCC -17.9%, O=C(Nc1ccc(Oc2ccccc2)cc1)C1CCN(S(=O)(=O)c2ccc(Cl)cc2)CC1 -9.59%, COc1ccccc1NC(=O)CCCc1nnc2n(C)c(=O)c3sccc3n12 5.57%, O=S(=O)(c1ccc(Cl)cc1)c1nc(-c2ccco2)oc1SCc1ccc(F)cc1 -40%, COc1ccc(CCN2C(=O)c3[nH]nc(-c4ccccc4O)c3C2c2ccc(OC)cc2)cc1 (centres undefined) -18.9%, Cc1ccc2nc3sc(C(=O)NCCCN(C)c4ccccc4)cc3cc2c1 -2.3%, COc1ccccc1CNC(=O)CCC1N=C2c3ccccc3N=C(SCc3ccc(C)cc3C)N2C1=O (centres undefined) -11.7%, Fc1cccc(-n2ncc3c2ncn2nc(Cc4ccccc4)nc32)c1 -8.75%, COc1ccc(NC(=O)CN(c2cc(C)cc(C)c2)S(=O)(=O)c2c(C)noc2C)cc1Cl 1.54%, COc1ccc(-c2nc(SCC(=O)Nc3ccc4c(c3)OCCO4)c(-c3ccc(C)cc3)[nH]2)cc1OC -1.7%, COc1ccc(NC(=O)CSc2ccc3nc(-c4ccccc4)cn3n2)cc1OC -1.1%, CC(C)NC(=O)c1nn(-c2ccccc2F)nc1CO 0.717%, Cc1ccc(CNC(=O)CN2C(=O)COc3ccc(S(=O)(=O)Nc4ccccc4)cc32)cc1 -9.79%, CC(C)(C)OC(=O)N1CCC(c2nnc(SCc3cccc(Cl)c3)o2)CC1 -1.47%, CCc1ccc(NC(=O)CC2C(=O)N(c3cccc(OC)c3)C(=O)N2C2CCCC2)cc1 (centres undefined) -0.478%, Cc1cc(C)cc(NC(=O)CSc2nc(-c3ccccc3)c3cc(F)ccc3n2)c1 -2.33%, Cc1ccc2c(c1)-c1ncc(C(=O)c3ccccc3O)cc1CO2 -14.5%, Cc1ccc(C(=O)NC2=NC(c3ccc(C)cc3)CC(=O)N2)cc1 (centres undefined) -0.274%, Cc1cc(C)cc(NC(=O)c2cc(CN3CCCC3)on2)c1 -26.2%, CCCCCOC(=O)CSc1ncnc2sc3c(c12)CCC(C)C3 (centres undefined) 1.17%, Cc1ccccc1S(=O)(=O)Cc1ccc(C(=O)NC2CCC(C)CC2)o1 (centres undefined) 0.0888%, Cc1nc2nc[nH]n2c(=O)c1CCC(=O)Nc1ccc(F)cc1 -0.386%, Cc1ccc(CNC(=O)C2CCN(S(=O)(=O)c3ccc4[nH]c(=O)ccc4c3)CC2)cc1 -2.4%, CCC(C)NC(=O)CSc1nc2cc3c(cc2c(=O)n1CCCCCC(=O)NCc1ccc2c(c1)OCO2)OCO3 (centres undefined) -0.786%, Cc1cc(-c2ccc(C)c(S(=O)(=O)NC3CCCCC3)c2)on1 -3.81%, CC1(C)C(=O)N(CC(=O)Nc2cccc(F)c2)c2ccc(S(=O)(=O)N3CCCCC3)cc21 -3.63%, Cc1nn(-c2ccccc2)c2c1N(CC(=O)N1CCN(c3ccc(F)cc3)CC1)C(=O)CS2 0%, O=C(Cn1c(=O)n(Cc2cccs2)c(=O)c2cccnc21)Nc1ccc(F)cc1 -6.25%, COc1cccc2cc(C(=O)Nc3ccc(F)c(F)c3)c(=O)oc12 -1.58%, Cc1ccc(Cl)cc1-n1c(=O)c2sc3ccccc3c2n(Cc2ccccc2)c1=O -0.0012%, CCCCCSc1nnc(-c2ccc(Br)cc2)o1 -3.17%, CCOc1cc(-c2nnc(SCC(=O)NC3CCCC3)nc2-c2ccc(OC)c(OCC)c2)ccc1OC 0.0507%, CC(C)CCN1C(=O)c2ccccc2CC1(C)C(=O)NC1CCC(C)CC1 (centres undefined) -0.631%, O=C(CSc1nccn1C1CCCC1)Nc1ccc(C(F)(F)F)cc1 -5.21%, CC(C)c1ccc(-c2nc(C(N)=O)c3c(n2)n(-c2ccc4c(c2)OCO4)c(=O)n3C)cc1 -9.76%, CCOc1ccc(NC(=O)Cn2cc(S(=O)(=O)NC)c(S(=O)(=O)NC)c2)cc1 -9.12%, COc1ccc(NC(=O)C2CCN(S(=O)(=O)c3ccc4[nH]c5c(c4c3)CCCCC5)CC2)cc1 9.17%, O=C(Nc1cccc(F)c1)[C@H](CSCc1ccccc1)N1Cc2ccccc2C1=O -5.4%, CCCCOc1cccc(C(=O)Nc2cccc(-c3nc4ncccc4o3)c2C)c1 11.1%, CCOC(=O)C1=C(C)NC(=O)NC1c1cn(-c2ccccc2)nc1-c1ccc(OCC)cc1 (centres undefined) 3.12%, Cc1ccc(NC(=O)C2CCCN(c3ncnc4onc(-c5ccc(F)cc5)c34)C2)c(Cl)c1 (centres undefined) 1.39%, CCC(C)NC(=O)Cn1ccc2cc(S(=O)(=O)N3CCCCC3)ccc21 (centres undefined) 1.09%, CSc1ncc(C(=O)N2CCN(c3cc(C)ccc3C)CC2)c(C)n1 -1.71%, Cc1cccc(N2CCN(C(=O)CN3C(=O)COc4ccc(S(=O)(=O)N5CCCCCC5)cc43)CC2)c1C -15.2%, Cc1oc(-c2ccc(C(=O)NCc3ccc(Cl)cc3)cc2)nc1CS(=O)(=O)c1ccccc1 -4.76%, CCn1c(=N)c(C(=O)NCc2ccccc2)cc2c(=O)n3cc(C)ccc3nc21 6%, CCCCNC(=O)C(Cc1ccccc1)NS(=O)(=O)c1ccc2c(c1)c(=O)n(C)c(=O)n2C (centres undefined) -3.58%, CCC1CN(C(=O)NCc2ccc(C)cc2)c2ccccc2O1 (centres undefined) -21.5%, CC(C)c1ccc(N2C(=O)CS(=O)(=O)C23C(=O)N(Cc2cccc(F)c2)c2ccccc23)cc1 (centres undefined) 1.43%, CCOc1ccc(-c2ncnn2-c2sc3c(c2C#N)CCCCC3)cc1 9.61%, Cc1cc(C)c(OCC(=O)N(Cc2ccco2)Cc2ccco2)c(C)c1 -0.462%, CCOC(=O)c1ccc(NS(=O)(=O)c2ccc(-c3cc(C)no3)cc2)cc1 -12.8%, Cc1ccc(C)c(NC(=O)c2cc(S(=O)(=O)N3CCCc4ccccc43)ccc2F)c1 8.46%, COc1ccc(Cn2ccc3nc(C)c(C(=O)Nc4cc(C)cc(C)c4)cc3c2=O)cc1 0.0558%, COc1ccccc1CCNC(=O)c1ccc(-c2nc(CSc3ccc(C)cc3)c(C)o2)cc1 -7.84%, CSc1ncc(C(=O)Nc2c(C)cccc2C)c(-c2ccccc2)n1 -0.877%, Cc1nc2ccccc2c(=O)n1-c1ccc(NC(=O)c2cccc([N+](=O)[O-])c2)cc1 -2.34%, CCC1CN(C(=O)N2CCC(C(=O)NCCc3ccccc3Cl)CC2)c2cc(C)ccc2O1 (centres undefined) 0%, COc1cc(NC(=O)CN2c3ccccc3S(=O)(=O)c3ccccc32)cc(OC)c1 -4.09%, CCCC(O)c1nc2ccccc2n1Cc1ccccc1OC (centres undefined) 2.18%, CCOCCCn1c(SCC(=O)OCC)nc2c(sc3ccccc32)c1=O -5.11%, Cc1cccc(C(C)C)c1NC(=O)C1CCCN1S(=O)(=O)c1cccc2nsnc12 (centres undefined) 1.11%, Cc1ccc(C(=O)CSc2nc(-c3ccccc3)nc3c2CCCC3)c(C)c1 -2.14%, CCCCn1cc(S(=O)(=O)c2ccc(OC)cc2)c(=O)c2cc(CC)ccc21 -5.91%, COc1ccc(CCNC(=O)C2CCC(CNS(=O)(=O)c3ccc(C)cc3)CC2)cc1OC (centres undefined) -5.84%, CNC(=O)C1CCC(Cn2c(=O)c3sccc3n(CC(=O)Nc3ccc(C)c(C)c3)c2=O)CC1 (centres undefined) -1.47%, O=S(=O)(c1ccccc1)c1nnn2c1nc(NC1CCCCC1)c1sccc12 4.1%, COc1ccc(-c2cc(C)no2)cc1S(=O)(=O)N1CCc2ccccc21 -6.6%, Cc1ccc(Cl)cc1NC(=O)Nc1nnc(N(C)Cc2ccccc2)s1 -0.39%, Cn1c(=O)c2c(SCC(=O)Nc3ccccc3C(F)(F)F)nc(C3CCCC3)nc2n(C)c1=O 5.76%, Cc1ccc(CN(C(=O)c2ccccc2)c2ccccn2)o1 -7.48%, O=C(O)CCCCn1c(SCC(=O)Nc2ccccc2C(F)(F)F)nc2ccsc2c1=O -4.63%, Cc1ccc(NC(=O)CSc2nc(=O)n(CCN3CCOCC3)c3c2CCC3)c(C)c1 -0.798%, Cc1ccc(OCC(=O)Nc2nnc(S(=O)(=O)N3c4ccccc4CC3C)s2)cc1 (centres undefined) -4.42%, Cc1ccc(C(=O)Nc2ccc(S(=O)(=O)N3CCC(c4nc5ccccc5s4)CC3)cc2)cc1 2.45%, Cc1ccc(NC(=O)c2nc(S(C)(=O)=O)ncc2N(Cc2ccco2)Cc2cccs2)c(C)c1 -0.298%, CC(=O)N1CCc2nc3sc(C(=O)c4ccc(F)cc4)c(N)c3c(C(F)(F)F)c2C1 -9.56%, CCc1ccc(NC(=O)C(=O)NCC(c2cccnc2)N2CCN(c3ccc(F)cc3)CC2)cc1 (centres undefined) 0%, CC(=O)c1cccc(NC(=O)c2nc(-c3ccccc3)n(-c3cccc(Cl)c3)n2)c1 -0.17%, Cc1nnc(N2CCC(C(=O)N3CCCCC3)CC2)c2nn(-c3ccc(Cl)cc3)c(C)c12 -2.23%, Cc1ccc(OCCCCn2nnc3sc4c(c3c2=O)CCCC4)cc1 -0.0543%, CC(=O)c1cc(-c2ccccc2)n(CCC(=O)NCc2ccc(C)cc2)c1C 0.399%, CCOc1ccccc1Nc1sc(C(=O)c2ccccc2)c(N)c1C(=O)Nc1ccccc1 -6.24%, COc1ccc(-c2nn3c(=O)cc(CN4CCN(C(=O)c5ccc(OC)c(OC)c5)CC4)nc3s2)cc1 6.17%, CCOc1ccccc1CNc1ccc2cc(S(=O)(=O)N3CCC(C)CC3)ccc2n1 -1.74%, COc1ccc(-c2noc(N(c3nc(-c4ccc(OC)c(OC)c4)no3)c3ccccc3OC)n2)cc1OC 5.88%, CC(C)(C)c1ccc(C(=O)Nc2ccc3c(c2)CCCN3C(=O)c2cccs2)cc1 7.44%, CCOc1ccccc1NC(=O)c1ccc2c(Cl)c3c(nc2c1)CCC3 1.2%, COC(=O)c1ccc(NC(=O)CSc2nc(C)cc(C)c2C(=O)Nc2ccccc2)cc1 0.554%
